Test results taken from publication PMC4336329 (PLoS ONE, 2015).
Hit rate of the full screen: of about 310,000 compounds, about 14,000 (4.5%) showed an effect of 50% or more. Effects have a minus sign here. Some of the results follow.

target: human ether-à-go-go-related gene (hERG) potassium channel (human, UniProt Q12809); assay: primary screen, population patch clamp on CHO cells stably expressing hERG
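Further: peak tail current of the secondary pulse compared with the same well before compound.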

Sequence of human ether-à-go-go-related gene (hERG) potassium channel (Q12809 whole entry, looked up): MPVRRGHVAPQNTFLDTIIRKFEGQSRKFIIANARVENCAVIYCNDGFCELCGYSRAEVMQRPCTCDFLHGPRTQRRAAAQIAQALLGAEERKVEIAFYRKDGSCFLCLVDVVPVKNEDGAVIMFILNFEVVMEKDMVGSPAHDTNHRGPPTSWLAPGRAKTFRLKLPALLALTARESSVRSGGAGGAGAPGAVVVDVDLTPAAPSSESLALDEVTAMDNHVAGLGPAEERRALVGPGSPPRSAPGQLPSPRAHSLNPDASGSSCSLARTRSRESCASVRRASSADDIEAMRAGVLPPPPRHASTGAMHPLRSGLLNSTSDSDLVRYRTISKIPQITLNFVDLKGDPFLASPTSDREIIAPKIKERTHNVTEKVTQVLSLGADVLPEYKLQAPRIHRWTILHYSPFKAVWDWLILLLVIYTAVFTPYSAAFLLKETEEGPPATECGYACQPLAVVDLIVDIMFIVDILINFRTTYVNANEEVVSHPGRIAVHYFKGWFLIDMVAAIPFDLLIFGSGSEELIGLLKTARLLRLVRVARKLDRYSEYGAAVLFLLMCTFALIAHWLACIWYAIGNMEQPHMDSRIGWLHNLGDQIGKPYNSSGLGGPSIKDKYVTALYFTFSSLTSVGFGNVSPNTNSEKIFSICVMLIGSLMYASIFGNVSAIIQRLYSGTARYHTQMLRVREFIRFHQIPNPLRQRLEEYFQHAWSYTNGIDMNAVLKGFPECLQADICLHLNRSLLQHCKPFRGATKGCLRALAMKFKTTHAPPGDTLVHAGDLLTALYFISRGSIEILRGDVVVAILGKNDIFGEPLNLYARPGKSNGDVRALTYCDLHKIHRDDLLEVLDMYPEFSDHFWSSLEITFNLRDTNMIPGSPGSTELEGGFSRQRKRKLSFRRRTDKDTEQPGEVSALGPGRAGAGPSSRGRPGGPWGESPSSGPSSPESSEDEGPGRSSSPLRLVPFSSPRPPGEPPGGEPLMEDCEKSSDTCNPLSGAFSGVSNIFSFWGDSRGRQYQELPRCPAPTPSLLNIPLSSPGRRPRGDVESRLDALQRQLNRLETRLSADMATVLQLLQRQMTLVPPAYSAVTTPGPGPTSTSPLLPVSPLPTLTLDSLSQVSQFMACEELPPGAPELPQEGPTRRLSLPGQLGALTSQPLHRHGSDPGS

Compound | hERG current change (%, negative = inhibition) at 10uM
O=S(=O)(c1ccccc1)N1CCC(c2ccccc2)CC1 | 9.81%
CCCN(C(=O)Cc1nc(N)n[nH]1)C1(C(=O)Nc2c(C)cccc2C)CCCCC1 | 5.99%
Cc1c(C(=O)c2ccc(Br)cc2)c(=O)n(C)c(=O)n1C | 7.09%
COc1ccc(/C(C)=N\O)cc1OC | 0.298%
COc1cccc(C(=O)CN(C(=O)c2ccc(Cl)c(Cl)c2)N2C(=O)c3ccccc3C2=O)c1 | 1.22%
Cc1[nH]c2ccccc2c1SCC(=O)NC1CCCCC1 | 39.9%
CCOc1ncccc1C(=O)Nc1ccc2c(c1)OCO2 | 17.8%
CCCN1C(=O)c2cc(C(=O)NCc3ccc(OC)cc3)ccc2C1O (centres unmarked) | -4.45%
CCC(C)(C)NC(=O)CCn1c(-c2ccccc2)cc(C(C)=O)c1C | -5.33%
Cc1ccc(S(=O)(=O)N2CCC(C(=O)OCC(=O)N(C)Cc3ccccc3)CC2)cc1C | -12%
Fc1ccc(/C=N/c2c(-c3ccc(F)cc3)nc3n2CCS3)cc1 | -4.46%
CCc1nc(-c2ccc(OC)c(OC)c2)cc2cc(OC)c(OC)cc12 | 20.7%
COc1ccc(C(=O)c2coc3ccc(OC(C)=O)cc23)cc1 | 24.9%
COc1ccc(Cl)cc1N=Cc1c(O)cc(C)oc1=O | 2.51%
COc1cccc(C(=O)Nc2cccc(-c3ccc(N4CCOCC4)nn3)c2)c1OC | -4.72%
O=C(O)CNC(=O)c1ccccc1Br | 9.63%
O=C(c1ccccc1)N(CCO)Cc1cc2cc3c(cc2[nH]c1=O)OCCO3 | 27.6%
Cc1nn(-c2ccccc2)c(N2CCCC2)c1/C=N/NC(=O)c1cc2ccccc2cc1O | -55.5%
CC(C)(C)n1nc2c(c1NC(=O)COc1ccc3ccccc3c1)CS(=O)(=O)C2 | -25%

Compound | hERG current change (%, negative = inhibition) at 10uM
Cn1c(N)cc(-c2ccc(F)cc2)c(C#N)c1=O | 3.18%
Cc1ccc(Nc2nc(N)nc(COC(=O)C3=COCCO3)n2)cc1 | -6.76%
Cc1cc(C)n2nc(C(=O)N3CCN(c4ccc([N+](=O)[O-])cc4)CC3)nc2n1 | -71.4%
Cc1cc(NS(=O)(=O)c2ccc(NC(=O)CCSc3ccc(F)cc3)cc2)nc(C)n1 | 4.71%
O=c1oc2ccccc2c(O)c1C=Nc1cccnc1 | 12.2%
COc1cccc(-c2ccc(NC(=O)C3CCCN(Cc4cnn(C)c4C)C3)cc2)c1 (centres unmarked) | 0.939%
CCOc1cc2[nH]c(=O)n(CCC(=O)NCCc3ccc(OC)c(OC)c3)c(=O)c2cc1OCC | 7.04%
Cc1ccc(C(=O)Nc2ccccc2-c2ccccc2)o1 | -12.3%
CCOc1ccc(Oc2c(/C=N/NC(C)=O)c(C)nn2-c2ccccc2)cc1 | -0.74%
CC(=O)NC1C(OCCOc2ccc(Cl)cc2Cl)OC(COC(C)=O)C(OC(C)=O)C1OC(C)=O (centres unmarked) | -43.6%
O=C(NC1CC2CCCC(C1)N2C(=O)Nc1ccc(F)cc1)c1ccccc1 (centres unmarked) | -3.42%
CC1(C(=O)NCCN2CCOCC2)C=CC2(CCCCC2)N1C(=O)c1ccccc1 (centres unmarked) | 12%
CN(c1cccc(NS(=O)(=O)c2cccs2)c1)S(C)(=O)=O | 9.88%
CCOC(=O)c1cc(S(=O)(=O)N(C)Cc2ccccc2)cn1C | -11.7%
O=c1cc(-c2ccccc2)[nH]n2cnnc12 | 12.6%
CCOC(=O)CC(=O)Nc1ccn[nH]1 | 23.5%
N#Cc1nc(-c2ccco2)oc1NCCN1CCOCC1 | 7.46%
COc1cccc(C(=O)CSc2nc3ccccc3n2CC(=O)N(C(C)C)C(C)C)c1 | -5.36%
CCS(=O)(=O)/N=C(\N)c1ccccc1 | -2.86%

Compound | hERG current change (%, negative = inhibition) at 10uM
COc1ccc(CCNC(=O)CSc2nc(O)c(CC(C)C)c(=O)[nH]2)cc1OC | -0.127%
CC1CCN(Cc2c(C(=O)N/N=C/c3ccc(C(C)(C)C)cc3)nnn2-c2nonc2N)CC1 | 17.7%
O=c1cc(CN2CCN(c3ccccc3F)CC2)c2cc3c(cc2o1)CCCC3 | 5.86%
CCCCn1c(N)c(N(CCOC)C(=O)CN(C)S(=O)(=O)c2ccc(C)cc2)c(=O)[nH]c1=O | 7.22%
COc1cccc(C(=O)Nn2c(-c3cccs3)nc3ccccc3c2=O)c1OC | -4.95%
c1ccc2c(c1)c1ccccc1n1c(-c3ccc4c(c3)OCO4)nnc21 | 3.9%
Brc1ccc(OCCCCN2CCCCC2)cc1 | -53.6%
O=C(CCC(=O)Nc1ccccc1)N/N=C/C=C/c1ccccc1 | 32.1%
COC(=O)c1c(C)nc(C)c(C(=O)OC)c1-c1ccc(OC)cc1 | -7.69%
Cc1ccc(CN2CCN(CC(=O)N/N=C/c3ccc(C)o3)CC2)cc1 | -64.2%
COC(=O)c1ccccc1NC(=O)COC(=O)CSc1nnc(N)s1 | 14.4%
O=C(COC(=O)C1CC1)Nc1nc(-c2ccc(F)c(F)c2)cs1 | 4.93%
CCOC(=O)CC(=O)CSc1ncnc2c1nnn2-c1ccc(OC)cc1 | 9.43%
Cc1cc(OC(C)C(=O)N2CCN(c3ccccc3)CC2)c2c(C)c(C)c(=O)oc2c1 (centres unmarked) | 10.3%
Cc1cc(F)ccc1S(=O)(=O)Nc1c(C)n(C)n(-c2ccccc2)c1=O | 12.4%
O=C1Nc2ccccc2OC1CC(=O)N1CCOCC1 (centres unmarked) | 0.751%
CN(C)S(=O)(=O)N1CCN(CC(=O)Nc2ccc(Br)cc2)CC1 | -49.4%
Cc1ccc(S(=O)(=O)N(C)/N=C/C=C/c2ccccc2)cc1 | 0.391%
